We go through 29 compounds from the supplement of paper PMC4604168 (melanoma cell lines).

The other results are listed elsewhere or left out. Most values come without repeats; read them as rough.
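Further: cell number obtained by counting DAPI-stained nuclei in high-throughput microscope images with image analysis software, screen run in 1,536-well plates.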

This test relates to WM115. Description: cell count relative to DMSO control; melanoma cells; higher = more viable cells. The conditions noted are these: library dose: low library concentration; 72 h.
For the compound `O=C(O)c1ccc2c(c1)nc(Nc1cccc(Cl)c1)c1ccncc12` + OCc1c[nH]c2ccccc12 [Indole-3-carbinol] (first compound 0.4 µM, partner dose 0.8 µM), the cell count was 98%. `O=C(Nc1cc(C(F)(F)F)cc(C(F)(F)F)c1)c1cc(Cl)ccc1O` + COc1cc2ncnc(Nc3ccc(Oc4ccccc4)cc3)c2cc1OC [SrcI1] (first compound 0.016 µM, partner dose 2 µM) returned a cell count of 106%.

Compound `O=C(O)[C@@H]1[O][Sb](=[O])([O][Sb]2(=[O])[O][C@H]([C@H](O)CO)[C@H](O)[C@H](C(=O)O)[O]2)[O][C@H]([C@H](O)CO)[C@@H]1O` (some centres undefined) [stibogluconate] + COc1cc(Nc2ncc(F)c(Nc3ccc4c(n3)NC(=O)C(C)(C)O4)n2)cc(OC)c1OC [Tamatinib] (first compound 2 µM, partner dose 0.4 µM) yielded a cell count of 96%. Then `O=C(Nc1cc(C(F)(F)F)cc(C(F)(F)F)c1)c1cc(Cl)ccc1O` + CC1(C)CCC(c2ccc(Cl)cc2)=C(CN2CCN(c3ccc(C(=O)NS(=O)(=O)c4ccc(N[C@H](CCN5CCOCC5)CSc5ccccc5)c(S(=O)(=O)C(F)(F)F)c4)cc3)CC2)C1 [ABT263] (first compound 0.016 µM, partner dose 0.4 µM), with 93.3%; and `O=C(Nc1cc(C(F)(F)F)cc(C(F)(F)F)c1)c1cc(Cl)ccc1O` + CC(C)CCN1c2nc(Nc3cc(F)c(O)c(F)c3)ncc2N(C)C(=O)C1C [BID1870] (first compound 0.016 µM, partner dose 0.2 µM), with 94.2%; and `O=C(Nc1cc(C(F)(F)F)cc(C(F)(F)F)c1)c1cc(Cl)ccc1O` + O=C(Nc1cccc(Cl)c1)Nc1ncc(CCNc2ncnc3ccsc23)s1 [SNS314] (first compound 0.016 µM, partner dose 0.0008 µM), with 82%. Under `O=C(O)[C@@H]1[O][Sb](=[O])([O][Sb]2(=[O])[O][C@H]([C@H](O)CO)[C@H](O)[C@H](C(=O)O)[O]2)[O][C@H]([C@H](O)CO)[C@@H]1O` (some centres undefined) [stibogluconate] + CCc1ccc(CCOc2ccc(CC3SC(=O)NC3=O)cc2)nc1 [pioglitazone] (first compound 2 µM, partner dose 2 µM) stands 99.8%.

For the compound `O=C(O)[C@@H]1[O][Sb](=[O])([O][Sb]2(=[O])[O][C@H]([C@H](O)CO)[C@H](O)[C@H](C(=O)O)[O]2)[O][C@H]([C@H](O)CO)[C@@H]1O` (some centres undefined) [stibogluconate] + O=C(O)C(=O)Nc1sc2c(c1C(=O)O)CCNC2 [TCS401] (first compound 2 µM, partner dose 1.66667 µM), the cell count came out at 95.6%. Under `O=C(Nc1cc(C(F)(F)F)cc(C(F)(F)F)c1)c1cc(Cl)ccc1O` + CS(=O)(=O)c1ccc(C(=O)Nc2ccc(Cl)c(-c3ccccn3)c2)c(Cl)c1 [vismodegib] (first compound 0.016 µM, partner dose 1 µM) stands 100%; under `O=C(Nc1cc(C(F)(F)F)cc(C(F)(F)F)c1)c1cc(Cl)ccc1O` + COc1ccc(Cl)c(Nc2nc3ccccc3nc2NS(=O)(=O)c2cccc(NC(=O)C(C)(C)N)c2)c1 [XL147] (first compound 0.016 µM, partner dose 0.8 µM), 108%; under `O=C(O)c1ccc2c(c1)nc(Nc1cccc(Cl)c1)c1ccncc12` + Cn1nnc2c(C(N)=O)ncn2c1=O [temozolomide] (first compound 0.4 µM, partner dose 2 µM), 99.8%. Under `O=C(O)c1ccc2c(c1)nc(Nc1cccc(Cl)c1)c1ccncc12` + CC1(C)NC(=O)N(c2ccc([N+](=O)[O-])c(C(F)(F)F)c2)C1=O [nilutamide] (first compound 0.4 µM, partner dose 1 µM) stands 120%; under `O=C(O)c1ccc2c(c1)nc(Nc1cccc(Cl)c1)c1ccncc12` + Oc1nc(-c2ccc(C(F)(F)F)cc2)nc2c1CSCC2 [XAV939] (first compound 0.4 µM, partner dose 2 µM), 108%; under `O=C(O)[C@@H]1[O][Sb](=[O])([O][Sb]2(=[O])[O][C@H]([C@H](O)CO)[C@H](O)[C@H](C(=O)O)[O]2)[O][C@H]([C@H](O)CO)[C@@H]1O` (some centres undefined) [stibogluconate] + C#Cc1cccc(Nc2ncnc3cc(OCCOC)c(OCCOC)cc23)c1 [erlotinib] (first compound 2 µM, partner dose 0.8 µM), 106%. Then `O=C(O)[C@@H]1[O][Sb](=[O])([O][Sb]2(=[O])[O][C@H]([C@H](O)CO)[C@H](O)[C@H](C(=O)O)[O]2)[O][C@H]([C@H](O)CO)[C@@H]1O` (some centres undefined) [stibogluconate] + C[C@@H]1CCN(C(=O)CC#N)C[C@@H]1N(C)c1ncnc2[nH]ccc12 [CP690550] (first compound 2 µM, partner dose 1 µM), with 108%; and `O=C(O)[C@@H]1[O][Sb](=[O])([O][Sb]2(=[O])[O][C@H]([C@H](O)CO)[C@H](O)[C@H](C(=O)O)[O]2)[O][C@H]([C@H](O)CO)[C@@H]1O` (some centres undefined) [stibogluconate] + OCc1c[nH]c2ccccc12 [Indole-3-carbinol] (first compound 2 µM, partner dose 0.8 µM), with 98.9%; and `O=C(Nc1cc(C(F)(F)F)cc(C(F)(F)F)c1)c1cc(Cl)ccc1O` + Clc1ccc(Nc2nnc(Cc3ccncc3)c3ccccc23)cc1 [vatalanib] (first compound 0.016 µM, partner dose 2 µM), with 88.5%. Compound `O=C(Nc1cc(C(F)(F)F)cc(C(F)(F)F)c1)c1cc(Cl)ccc1O` + CN(NC(=O)CC(=O)NN(C)C(=S)c1ccccc1)C(=S)c1ccccc1 [STA4783] (first compound 0.016 µM, partner dose 0.006 µM) returned a cell count of 79.5%. Then `O=C(Nc1cc(C(F)(F)F)cc(C(F)(F)F)c1)c1cc(Cl)ccc1O` + COCC[n+]1c2c(n(Cc3cnccn3)c1C)C(=O)c1ccccc1C2=O [YM155] (first compound 0.016 µM, partner dose 0.0004 µM), with 108%; and `O=C(Nc1cc(C(F)(F)F)cc(C(F)(F)F)c1)c1cc(Cl)ccc1O` + O=C(O)c1ccc2c(c1)nc(Nc1cccc(Cl)c1)c1ccncc12 [CX4945] (first compound 0.016 µM, partner dose 0.4 µM), with 115%. `O=C(Nc1cc(C(F)(F)F)cc(C(F)(F)F)c1)c1cc(Cl)ccc1O` + CCCCCCCCCCCCCCCCCCOP(=O)([O-])OC1CC[N+](C)(C)CC1 [Perifosine] (first compound 0.016 µM, partner dose 0.4 µM) displayed a cell count of 95.1%. Then `O=C(O)c1ccc2c(c1)nc(Nc1cccc(Cl)c1)c1ccncc12` + NC(=O)Nc1cc(-c2cccc(F)c2)sc1C(=O)N[C@H]1CCCNC1 [AZD7762] (first compound 0.4 µM, partner dose 0.02 µM), with 116%. Then `O=C(Nc1cc(C(F)(F)F)cc(C(F)(F)F)c1)c1cc(Cl)ccc1O` + C#Cc1cccc(Nc2ncnc3cc(OCCOC)c(OCCOC)cc23)c1 [erlotinib] (first compound 0.016 µM, partner dose 0.8 µM), with 95.8%; and `O=C(O)[C@@H]1[O][Sb](=[O])([O][Sb]2(=[O])[O][C@H]([C@H](O)CO)[C@H](O)[C@H](C(=O)O)[O]2)[O][C@H]([C@H](O)CO)[C@@H]1O` (some centres undefined) [stibogluconate] + Nc1nc(F)nc2c1ncn2[C@@H]1O[C@H](CO)[C@@H](O)[C@@H]1O [fludarabine] (first compound 2 µM, partner dose 0.2 µM), with 83.3%. Under `O=C(O)[C@@H]1[O][Sb](=[O])([O][Sb]2(=[O])[O][C@H]([C@H](O)CO)[C@H](O)[C@H](C(=O)O)[O]2)[O][C@H]([C@H](O)CO)[C@@H]1O` (some centres undefined) [stibogluconate] + Cn1nnc2c(C(N)=O)ncn2c1=O [temozolomide] (first compound 2 µM, partner dose 2 µM) stands 101%; under `O=C(O)[C@@H]1[O][Sb](=[O])([O][Sb]2(=[O])[O][C@H]([C@H](O)CO)[C@H](O)[C@H](C(=O)O)[O]2)[O][C@H]([C@H](O)CO)[C@@H]1O` (some centres undefined) [stibogluconate] + CC(C)(C)c1cnc(CSc2cnc(NC(=O)C3CCNCC3)s2)o1 [SNS-032] (first compound 2 µM, partner dose 0.01 µM), 104%; under `O=C(O)c1ccc2c(c1)nc(Nc1cccc(Cl)c1)c1ccncc12` + CO[C@@H]1[C@H](N(C)C(=O)c2ccccc2)C[C@H]2O[C@]1(C)n1c3ccccc3c3c4c(c5c6ccccc6n2c5c31)C(=O)NC4 [Midostaurin] (first compound 0.4 µM, partner dose 0.08 µM), 88.9%. `O=C(O)[C@@H]1[O][Sb](=[O])([O][Sb]2(=[O])[O][C@H]([C@H](O)CO)[C@H](O)[C@H](C(=O)O)[O]2)[O][C@H]([C@H](O)CO)[C@@H]1O` (some centres undefined) [stibogluconate] + COCC[n+]1c2c(n(Cc3cnccn3)c1C)C(=O)c1ccccc1C2=O [YM155] (first compound 2 µM, partner dose 0.0004 µM) displayed a cell count of 112%. Under `O=C(Nc1cc(C(F)(F)F)cc(C(F)(F)F)c1)c1cc(Cl)ccc1O` + NC1(c2ccc(-c3nc4ccn5c(=O)[nH]nc5c4cc3-c3ccccc3)cc2)CCC1 [MK2206] (first compound 0.016 µM, partner dose 0.4 µM) stands 81.8%.
